Data: the supplement of paper PMC3334620
Whole data set: some 33,000 sequences, median “E-score (-0.5 to 0.5)” near -0.016, cut for the highest 2% near 0.32. The list shows a part of the results.

The sequences below were run against T1, Stp1 (UniProt B3LFK1) (assay: PBM E-score (8-mer binding enrichment) (E-score (-0.5 to 0.5)); higher = stronger / more preferred TF binding; most listed sequences are background and not binding sites). Settings: protein concentration: 200 nM; construct: GST-full length.
T1 sequence: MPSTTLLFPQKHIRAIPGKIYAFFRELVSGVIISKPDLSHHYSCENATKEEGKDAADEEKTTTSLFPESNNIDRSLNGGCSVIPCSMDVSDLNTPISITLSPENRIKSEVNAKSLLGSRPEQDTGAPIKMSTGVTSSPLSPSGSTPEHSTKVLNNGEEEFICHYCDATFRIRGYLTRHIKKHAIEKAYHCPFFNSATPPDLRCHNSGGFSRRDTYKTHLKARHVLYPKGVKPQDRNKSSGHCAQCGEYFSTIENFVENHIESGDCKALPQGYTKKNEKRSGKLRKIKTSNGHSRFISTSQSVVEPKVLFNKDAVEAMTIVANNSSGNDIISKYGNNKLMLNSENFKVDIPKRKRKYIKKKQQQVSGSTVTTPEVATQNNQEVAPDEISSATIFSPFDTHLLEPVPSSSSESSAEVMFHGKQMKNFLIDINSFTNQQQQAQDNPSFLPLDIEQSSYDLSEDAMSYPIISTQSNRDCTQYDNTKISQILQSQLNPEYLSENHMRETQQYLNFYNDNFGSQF
Method in brief: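 Yeast transcription factors, full-length or as DNA-binding domains, were expressed with a GST tag using PURExpress in vitro transcription/translation. At about 100-200 nM they were applied to universal all-10-mer Agilent arrays, double-stranded by primer extension on fresh or once-stripped slides. Fluorescent anti-GST detected bound protein, and masliner normalised the scans. E-scores for ungapped eight-base words, pooled with reverse complements, came from the Universal PBM Analysis Suite.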

Sequence	PBM E-score
GTAGGAAC	0.0214
GAATACCA	0.0128
AAAGGGGC	-0.108
AAGCCGGG	-0.211
TCCCTACA	-0.129
CTGCCTCC	-0.063
CTCAGGGC	0.00893
GAAACGCA	0.145
TTAACCAA	0.0665
CCTCTCAC	-0.0778
GACTATGA	-0.251
CGGCATAA	0.358
CCCAAGTC	-0.207
CACAGAAA	-0.00471
CTTGGTTC	0.197
AGTTCGTA	0.102
TGCGTCCA	-0.0565
ACGTCGTC	-0.0849
CACAATAC	-0.13
AGCCAAAA	-0.0215
ACCTTGGC	-0.262
CAAACATG	-0.00926
CGAGTGGC	0.167
ACATATCA	0.186
CTGGAAAG	-0.15

Sequence	PBM E-score
CTATGGAA	0.00264
CTTCCGCA	-0.107
GAATCCTA	0.0481
ATGCATCC	-0.231
CTTGGTGC	-0.0166
ATGCATAA	0.0467
CCTGCACA	-0.217
CCCGGTAC	-0.346
ACCCTAAG	-0.186
CATTCATA	0.186
AACGGCAA	0.432
CGCGTAAA	0.213
GCGACCAA	0.0541
ATGTGTTA	0.148
CTCCCCAG	-0.314
TAGGTGAA	-0.103
AAAGCCTA	0.038
TCTCTTCA	0.0652
AGTCTCGC	-0.257
CTAGGGCA	-0.0923
GGGCCGTA	0.369
AGGAGATA	-0.104
ACGCGGAG	0.111
CGGTCCCC	-0.295
GACCAGAC	-0.173

Sequence	PBM E-score
AACTCAGG	-0.273
CGCTGTAG	-0.0691
ATAGCAGG	2e-05
CGTCTTAG	0.0086
TGACGTAA	-0.035
AGGATTTG	-0.0786
CGCCTTGC	0.35
CCGCTCTC	-0.0569
ACATGCCA	0.124
CTCGTCAG	-0.0139
GCCTCTGA	-0.183
AAGAGTCC	-0.301
ATTTAGGA	0.0408
CAGGCACC	-0.107
ATAATGAA	0.261
AATAATTC	0.0962
ATCCCTGC	-0.0959
AAATTAGG	0.178
AGGACTAC	-0.337
ACCCAGAA	0.0346
CCAGCTGA	0.0196
CATAAAAC	0.0722
AGGAAGGA	-0.229
CGGGTTCC	-0.148
AACTGAAC	0.0793

Sequence	PBM E-score
AACCCTTA	0.0145
TACAGCAA	0.017
ATTCGACA	-0.0353
AGCCGCGG	0.376
AGGACGGC	0.324
ACACCTTC	0.0164
GCTAGGCA	-0.00599
GGGGGAGA	-0.265
CCACTCAA	0.189
CCGCCTGC	0.16
CTACCACA	-0.131
CATGGCGA	-0.0243
ATGTTGGG	-0.106
ATATGACA	0.0546
TCGAGTCA	-0.0858
GATATTGA	0.194
TAGAAACA	0.117
AGGTACAG	-0.234
AGTGGCTC	0.0246
CATCTGTA	-0.00399
AAGAACTA	0.00555
CACCAACA	-0.105
TCACAACA	0.187
GAATTTAA	0.0413
GTCGCCAA	-0.0493

Sequence	PBM E-score
AAACGGGG	0.149
ATACACAA	0.0923
CCGGCAGC	-0.063
AGGCTCCG	0.291
ATCGCAGC	0.0854
GCTGTAAA	0.147
CTACGCAG	0.113
CGTCTGGC	0.0155
AAACGGGT	0.188
GTAAGGGA	-0.0448
GCAAACCC	-0.23
AACGTTGC	0.0459
AGCAGCGA	0.0195
ACGACATA	-0.121
CTTAATCA	0.0291
AAGCTTCA	-0.164
ACAATACT	0.0888
CTAGGACA	-0.109
ACACGGAT	0.315
CGAGTGTA	-0.0856
CGCGAGTC	-0.122
CACCGCCC	-0.0765
CTTGCTGA	-0.163
CCTATAGG	-0.197
CCGACTTC	-0.238

Sequence	PBM E-score
ACGGGGTA	-0.144
ACTTCGTC	0.0206
AGTTCCGA	-0.0834
GCATTTGA	0.105
AGGACCTC	-0.248
GGTTGTCA	-0.146
AAGACTCT	-0.0588
TGCATAAA	0.152
AAGCGACT	-0.0822
GCTCAACA	0.00726
ATGACAAC	0.171
GAAACGTA	0.0132
CCGAGGAC	-0.19
GAACAGCA	-0.0185
ACAGTCGT	-0.0468
GTGGCGAA	0.167
AAAATTCC	0.14
GTTTCCCA	0.0404
GATGCGAC	-0.0969
CACGAAGC	0.0746
ACTTGCCT	0.00572
GGAACAAC	0.0872
CCGCTCAC	-0.01
GCTTACAC	-0.0587
ACGTTGGG	-0.132

Sequence	PBM E-score
ATCCTGCC	-0.0501
ACGGTATA	0.0648
GAGGGAAC	-0.0721
GAGGTAAA	0.0679
AACGTGTC	-0.177
GGAGAGCC	-0.00695
TCAGGAGA	0.0156
CCGTAACG	-0.00441
GTGCGGCA	0.469
ACAATAGC	-0.0477
ACTTAAGA	0.184
CCGTCTGA	0.221
CCGTTTGA	0.299
AGTTCAGA	0.00436
CGCTCACA	0.0478
AGGACCTG	-0.24
ATCAGCTA	-0.173
CTAGCCCA	-0.233
CGATGACA	0.127
CTGGCGGA	-0.286
AGGATGTC	-0.0107
GAAACATA	0.0803
AAGTGAAA	0.106
ACTATTGC	0.173
CTACAACA	-0.00032

Sequence	PBM E-score
GCGCACTA	0.258
GCGCGCCC	0.124
CCATGAAG	-0.066
ATAGACGA	0.0213
ATAGTAGC	0.1
AACTTTCT	-0.0269
ATTTCTCC	-0.0406
AATGCGCC	0.303
GGAAGGCA	0.246
CCATTTTA	0.216
CGTGGCCA	0.00473
GTGTGACA	-0.157
GGACGGCA	0.441
CGGATCGC	0.0759
AGGTTTCG	-0.147
ATCAGGAC	-0.0912
AGTATGGC	-0.0679
CTGACAAC	-0.0205
ACTTGCCG	0.209
ATCGAGTG	0.141
GGAGCACC	-0.188
AAGCTGAA	-0.00188
CGACCACG	0.0476
CTGCAGCC	-0.227
GTTGATAA	0.242

Sequence	PBM E-score
GGCCTCCA	-0.183
ACGGCTTC	0.417
GAGAATGA	0.133
AAGGTGCC	0.216
GTCCGCGA	-0.0616
ATCGCCGC	0.45
ATTTCTTA	0.163
GCCCCCGA	-0.304
ACTGTTGG	-0.147
AGACGAAT	0.0892
AAGCATCG	0.0894
ATCTTCCG	0.0423
ACCGATCT	-0.056
CGATGAAG	0.00162
TAATAGCA	-0.0461
ATACAAAT	0.278
ACGGTTAC	0.124
ATAGCACA	0.125
CTTGGGAC	-0.13
CGTAAACG	0.151
CTACTCCC	-0.279
ATGATATA	0.0105
AGGTGTAT	0.146
ATTTAGTG	0.0749
AGAGTCTC	-0.264

Sequence	PBM E-score
CCGCAATC	0.0224
AGGGGATA	-0.26
CCTTAACA	0.0522
ATACGAAG	0.0582
AAATAAAC	0.218
CCGACAGC	-0.148
CGGGTTGC	-0.111
AAGTCTGT	-0.193
CTACCGTA	-0.0539
ACCGTTTC	0.0865
GACCGCCC	-0.347
CAGCGCTG	0.0953
CCGTAGGA	0.0991
GATCAATC	-0.0857
GCCAACGC	0.245
AAACAGGA	-0.0614
TAATGCAA	0.134
ATCTCTCC	-0.017
AAGACGAA	0.0123
CAAATATG	0.12
CTAACCAG	-0.075
CCCTTTAG	-0.219
CTACTAGA	-0.0772
ATCAAGGC	-0.0478
CCGGGGTC	-0.173

Sequence	PBM E-score
ATGGCTGG	-0.207
ACATCCGT	0.0921
CACCAGCA	-0.224
CTCAGCAC	-0.116
GATCACCA	0.143
ACGCAACA	0.114
CGGGTTGA	-0.114
CCTGGAAA	-0.121
AAACGGCC	0.368
GTGATGCA	0.169
GTTCCCTA	-0.0821
ACTACGAA	0.128
GCTACCTA	-0.146
CCTTCGCA	0.0202
GTGGAGAA	-0.0885
TACGCGTA	0.0156
AGTCCGCA	0.106
CGTCCGTC	-0.144
TAAATTTA	0.226
CGATAATA	0.0751
GATCACTA	-0.0451
AACGTCCG	-0.122
TCTTGTCA	0.0645
AACCATCT	-0.176
AGTTTAGG	-0.22

Sequence	PBM E-score
CACGATGC	0.0991
ATGGGTAC	-0.154
TAAAGCGA	0.00495
ACAAAAGA	0.247
GAGCGGTA	0.058
CTTCGTCC	-0.0786
CATAGATC	-0.0519
CGGAAAAC	0.00742
GGACTACA	0.0189
GCTGATAA	0.129
CGTTCGAA	0.251
AATGCAGA	0.155
CCCCTCGC	-0.209
ATTACAAT	0.116
ATTCGTCG	-0.0259
AACGTATA	0.0584
CGCATGAG	0.0104
CACTCCCA	-0.0767
AACTAAAA	0.0204
AAACTACG	0.0983
TGGTGTAA	-0.0309
AGAGCCTC	0.126
CTGGCTCC	-0.205
CAGAGATA	0.0566
GTTCCTTA	0.0691

Sequence	PBM E-score
ACGGGAAG	-0.138
CAGAGTAA	-0.121
AATGCGTC	-0.188
CGGCTACC	0.226
CCAGGAAG	-0.0847
GCTAGTAC	-0.0494
AACTGTAT	0.129
CCTCATAG	0.0198
AATAGTGA	0.0984
AGGGAGTG	-0.0747
AGCACGTG	0.225
AGAGGCAG	-0.125
ACTAGCCC	-0.0796
TCATCGCA	-0.0449
AGAATGGC	0.119
ACAACACA	0.0707
CAACCGAA	0.0205
GCGGGTAC	0.0426
ACGGTAAG	0.106
AAGGGACC	-0.176
AACGAAAT	0.166
AGGCAACT	0.18
TATCCTCA	-0.00916
AACTCCGT	0.221
AAGAAAGC	-0.0454

Sequence	PBM E-score
AGTTCGAT	-0.0251
AATGGGGG	-0.295
ACAGCCAT	0.02
GAGAATAA	0.12
CCCCGTGA	-0.14
CGCAGGTC	-0.0638
AAGAAATC	0.133
AAAGCACA	-0.0775
AACCTGCA	-0.126
GGTTACAA	0.154
AATACATA	0.131
AACGGGCG	0.154
GGATAAAC	0.144
AAACTAGC	-0.104
GATCTCAA	0.0503
ACTGGCAC	0.0514
CTGAGACC	-0.128
GGATGGCC	-0.237
AGTGCCAA	-0.0972
